By IC50 is meant the dose at which the fit gives 50% viability; a fit beyond the top or the lowest dose is shown as a bound at that dose. The AUC spans the tested range (256-fold, ending at the top dose) of the same fit; the more sensitive the line, the further below 1. For part of these data: Any top dose called inferred is not printed in the source and was worked back from the curve model. For part of these data: Where an entry number is given, a second screen of the drug exists; the two often differ.
Experiments:
Experiment in all cases: Viability of human cancer cell lines after 72 h of drug (GDSC screen)
CUDC-101 = compound: C#Cc1cccc(Nc2ncnc3cc(OC)c(OCCCCCCC(=O)NO)cc23)c1 [CUDC-101]; conditions: top dose 5.12 µM; top dose inferred
Procedure: (§1)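 Human cancer cell lines in 384-well plates, medium with 10% serum, drug for 72 h over a 256-fold dose range (nine 2-fold or five 4-fold steps up to the top dose). Adherent lines were fixed and stained with the nucleic acid dye Syto60, suspension lines read with resazurin; signal relative to control wells, capped at 0 and 100%. One two-parameter sigmoid per drug and line, fitted in a mixed model over all curves with the slope shared within a line.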

AC220 = compound: CC(C)(C)c1cc(NC(=O)Nc2ccc(-c3cn4c(n3)sc3cc(OCCN5CCOCC5)ccc34)cc2)no1 [AC220]; conditions: top dose 1.024 µM; top dose inferred
Procedure: as §1

RDEA119 = compound: COc1cc(F)c(F)c(Nc2ccc(I)cc2F)c1NS(=O)(=O)C1(C[C@H](O)CO)CC1 [RDEA119]; conditions: top dose 5 µM, top dose inferred
Procedure: as §1

JNK-9L = compound: Fc1cc(-c2ccnc(Nc3ccc(-n4cnc(N5CCOCC5)n4)cc3)n2)cc(N2CCOCC2)c1 [JNK-9L]; conditions: top dose 5.12 µM; top dose inferred
Procedure: as §1

OSU-03012 = compound: NCC(=O)Nc1ccc(-n2nc(C(F)(F)F)cc2-c2ccc3c(ccc4ccccc43)c2)cc1 [OSU-03012]; conditions: top dose 16 µM; top dose inferred
Procedure: as §1

5-Fluorouracil = compound: O=c1[nH]cc(F)c(=O)[nH]1 [5-Fluorouracil]; conditions: top dose 32 µM; top dose inferred
Procedure: as §1

QS11 = compound: OC[C@H](Cc1ccccc1)Nc1nc(Oc2ccc3c(c2)CCC3)nc2c1ncn2Cc1ccc(-c2ccccc2)cc1 [QS11]; conditions: top dose 10.24 µM
Procedure: as §1

Cell Line | AUC (CUDC-101) | IC50 (CUDC-101) [nM] | AUC (AC220) | IC50 (AC220) [nM] | AUC (RDEA119; screen: GDSC drug entry 1014) | IC50 (RDEA119; screen: GDSC drug entry 1014) [nM] | AUC (RDEA119; screen: GDSC drug entry 1526) | IC50 (RDEA119; screen: GDSC drug entry 1526) [nM] | AUC (JNK-9L) | IC50 (JNK-9L) [nM] | AUC (OSU-03012) | IC50 (OSU-03012) [nM] | AUC (5-Fluorouracil) | IC50 (5-Fluorouracil) [nM] | AUC (QS11) | IC50 (QS11) [nM]
BCPAP (thyroid, adherent) | 0.479 | 282 | 0.989 | > 1020 | 0.776 | 1810 | 0.752 | 1520 | 0.557 | 451 | 0.763 | 5260 | 0.789 | 12800 | 0.919 | > 10200
CHSA8926 (chondrosarcoma, adherent) | 0.882 | > 5120 | 0.974 | > 1020 | 0.886 | > 5000 | 0.867 | > 5000 | 0.935 | > 5120 | 0.98 | > 16000 | 0.944 | > 32000 | 0.98 | > 10200
BFTC-905 (bladder, adherent) | 0.607 | 603 | 0.99 | > 1020 | 0.669 | 854 | 0.717 | 1160 | 0.234 | 62.7 | 0.621 | 2050 | 0.905 | > 32000 | 0.813 | 4600
M059J (glioma, adherent) | 0.606 | 643 | 0.985 | > 1020 | 0.919 | > 5000 | 0.915 | > 5000 | 0.499 | 318 | 0.798 | 8340 | 0.843 | 25600 | 0.931 | > 10200
MRK-nu-1 (breast, suspension) | 0.784 | 1980 | 0.99 | > 1020 | 0.988 | > 5000 | 0.989 | > 5000 | 0.547 | 424 | 0.722 | 4010 | 0.442 | 1410 | 0.944 | > 10200
QIMR-WIL (acute myeloid leukaemia, suspension) | 0.268 | 71.8 | 0.965 | > 1020 | 0.982 | > 5000 | 0.936 | > 5000 | 0.492 | 304 | 0.559 | 1440 | 0.542 | 2600 | 0.765 | 3640
IST-SL2 (small cell lung carcinoma, suspension) | 0.986 | > 5120 | 0.974 | > 1020 | 0.96 | > 5000 | 0.986 | > 5000 | 0.509 | 340 | 0.758 | 5500 | 0.984 | > 32000 | 0.881 | > 10200
SK-MEL-1 (melanoma, suspension) | 0.728 | 1280 | 0.983 | > 1020 | 0.4 | 173 | 0.606 | 585 | 0.76 | 1580 | 0.989 | > 16000 | 0.991 | > 32000 | 0.993 | > 10200
NAMALWA (Burkitt lymphoma, suspension) | 0.069 | < 20 | 0.991 | > 1020 | 0.989 | > 5000 | 0.991 | > 5000 | 0.621 | 650 | 0.669 | 2720 | 0.648 | 4760 | 0.94 | > 10200
SHP-77 (small cell lung carcinoma, semi-adherent) | 0.588 | 541 | 0.98 | > 1020 | 0.992 | > 5000 | 0.99 | > 5000 | 0.691 | 1020 | 0.876 | 12900 | 0.835 | 17900 | 0.982 | > 10200
LU-134-A (small cell lung carcinoma, suspension) | 0.484 | 289 | 0.953 | > 1020 | 0.977 | > 5000 | 0.974 | > 5000 | 0.567 | 495 | 0.957 | > 16000 | 0.834 | 22800 | 0.962 | > 10200
HD-MY-Z (Hodgkin lymphoma, adherent) | 0.482 | 285 | 0.876 | > 1020 | 0.666 | 909 | 0.772 | 1940 | 0.724 | 1390 | 0.762 | 5760 | 0.753 | 10700 | 0.93 | > 10200
LS-123 (large intestine, adherent) | 0.631 | 828 | 0.972 | > 1020 | – | – | 0.841 | > 5000 | 0.732 | 1860 | 0.539 | 1320 | 0.96 | > 32000 | 0.809 | 7680
Becker (glioma, adherent) | 0.826 | 3650 | 0.975 | > 1020 | 0.787 | 2470 | 0.781 | 2360 | 0.587 | 573 | 0.762 | 6430 | 0.955 | > 32000 | 0.979 | > 10200
Calu-3 (lung adenocarcinoma, adherent) | 0.629 | 797 | 0.981 | > 1020 | 0.865 | > 5000 | 0.837 | 4640 | 0.658 | 987 | 0.758 | 6880 | 0.983 | > 32000 | 0.85 | > 10200
H2595 (mesothelioma, adherent) | 0.644 | 941 | 0.98 | > 1020 | 0.949 | > 5000 | 0.862 | > 5000 | 0.687 | 1320 | 0.852 | > 16000 | 0.853 | > 32000 | 0.98 | > 10200
SW900 (lung squamous cell carcinoma, adherent) | 0.731 | 1640 | 0.984 | > 1020 | 0.985 | > 5000 | 0.778 | 2380 | 0.706 | 1360 | 0.698 | 3990 | 0.87 | > 32000 | 0.984 | > 10200

From the supplement of paper PMC4967469
